Reference: the RNAGym collection of RNA variant scans (doi:10.7554/elife.90254)
Read counts are not given, so values of variants with three or more changes are uncertain.

B1: LINE1-mini (parent)
chain: GGCAGAGCUCAACACAGCGUGGCAAAGUGGCUGUGGCUAGACUGCC

Variants of: B1
Assay: self-cleavage, relative activity (ratio to wild type); higher = more cleavage; in vitro, sequencing; the parent is a self-cleaving ribozyme

| Variant | self-cleavage |
| --- | --- |
| C23U G29C U43C | 0.02 |
| A24C A26C U34A U38A A41G | 0.13 |
| A24U A25U G44U | 0.04 |
| G22U A25C U43A | 0.15 |
| A24G U32A G40C | 0.02 |
| A25U G27U U34A | 0.04 |
| C23U U28G G30A | 0.63 |
| C23G C31U C46A | 0.08 |
| G22U A26U U38G A41U G44A | 0.01 |
| A26C G40U G44A | 0 |
| C23A G40U G44C C45U | 0.03 |
| C23G G30C G40U G44C C45A | 0 |
| C23A G35A A39C | 0.08 |
| A24U G33U A39U | 0.04 |
| A25U G30A G33C G35A C45U | 0.04 |
| A24G G27A U43G | 0.02 |
| A25C A26U A39C G40U C45A | 0 |
| C23G U32A G33U | 0.01 |
| G22U A25C U38G G40U | 0.04 |
| A26C A41U G44A | 0.06 |
| A25C U34A C45A | 0.06 |
| A25U C31G C45A | 0.04 |
| C23A G35U U38A | 0.03 |
| G22U C31G C45A | 0.02 |

| Variant | self-cleavage |
| --- | --- |
| A24G G27C G30U C31G G35C | 0 |
| A25G G30C G36A | 0.01 |
| A24U A25U C31A G33C C42A | 0.02 |
| A26C G35A C37U | 0.04 |
| A25C A26C A39G | 0.03 |
| A24G G33A U43C | 0.07 |
| C23U A24U G30U C31A A41G | 0.04 |
| C23A U32C U34A C37U | 0.04 |
| C23A G27C G33U G35C C42G G44A | 0.03 |
| C23G U34G G40C | 0.07 |
| C23G G27A G33A | 0.07 |
| C23A G30U G44U | 0.15 |
| C23G A25G G35U C45A | 0.01 |
| A25U U34G C46A | 0.11 |
| A24G G29A C42G | 0.07 |
| A25C G27A A41G C45U | 0.09 |
| C23A A26C G35A G40A C42A | 0.09 |
| A25C U32A G44A | 0.05 |
| C23U G29C G30U G36C | 0.06 |
| C23A U38A C42A C46A | 0.03 |
| G22U U28G U32A | 0.04 |
| A25U C37G G44A | 0.16 |
| A24C G40C C42U G44U C45U | 0.06 |
| A25U G35A G40U | 0.03 |

| Variant | self-cleavage |
| --- | --- |
| A25C G27A G36U C45G | 0.02 |
| A24C C31G U34A G40C C46U | 0.02 |
| A25C G29A G30C C37G A41G C45A | 0 |
| A24C U28A C45U | 0.1 |
| C23A A24C G36U C45U | 0.89 |
| C23G U32G C37G A39U G40A | 0.02 |
| C23G A26U G27U G30A G35U | 0.02 |
| G22U U34C C46A | 0.23 |
| A24G U28A G36C C45A | 0.02 |
| A25C G27A G40U U43G | 0.01 |
| A25C G36U G40A | 0.03 |
| A25U U38G G44A | 0.02 |
| A25G G35A G44A | 0.07 |
| A25G A39G C45U | 0.01 |
| A24C G33A C45G | 0.02 |
| A24U U28A C31A A39G G40C | 0.04 |
| C23U G40U C42A | 0.16 |
| A26C G27U C31U G33U G36C A41C | 0 |
| A25U C31U C37G | 0.01 |
| A24U U28C G40A | 0.13 |
| C23U A25U G33U G44C | 0.04 |
| A24G G36A U38A G40U U43C | 0.01 |
| A25G C37G U43G | 0 |
| C23G C31U G35A C45G | 0.02 |

| Variant | self-cleavage |
| --- | --- |
| G22U G30U U34A C37A | 0.02 |
| C23G A24U A26U U38A C42U | 0.34 |
| C23A A26U G35C | 0.38 |
| G22U G27A U32G A41C | 0.04 |
| A24U U34G G40C | 0.01 |
| C23A A24U G27A U34A | 0.24 |
| A25U G33A C37G C42G | 0.09 |
| A25C U28A C37A | 0.03 |
| A25U G35A U38A | 0.07 |
| C23U G27C G33C A41C | 0.03 |
| G22U A25U C37G | 0.23 |
| A24G G33C C46G | 0.06 |
| G22U G33A C42A | 0.12 |
| A24C U34C A39C C45A | 0.06 |
| A24C G33C G36A C45G | 0.01 |
| A26C C42A G44U | 0.03 |
| A25C A39G C46U | 0 |
| C23U U32G C45G | 0.15 |
| A24U C31U G33A C46A | 0.03 |
| C23G A26C U28C U34C | 0.05 |
| A25U A26U U34C A39G | 0.06 |
| A24G G29U A39U C45A | 0.88 |
| A25G G33A G36A A41C | 0.05 |
| C23U G36U C46A | 1.03 |

| Variant | self-cleavage |
| --- | --- |
| A24C A26G C37U | 0.02 |
| C23U U32A U38G A39G | 0.04 |
| A24C G30U C46U | 0.19 |
| C23A G27U U28G | 0.13 |
| C23U A25G C42G | 0.02 |
| C23G A24U U28C G44C C46A | 0.23 |
| C23G U38C A39U A41C | 0.05 |
| A26C G36A U43A | 0.05 |
| A26C G36U U38A A39G C46U | 0.02 |
| C23U A24G C37U A41C | 0 |
| C23U G30A G36U G40A G44C | 0.07 |
| A24U U38A A41U | 0.22 |
| C23U G27C G40A A41U C45U | 0.13 |
| A24C A39U C45A | 0.02 |
| A24U U28A C31G | 0.45 |
| C23A G35A G36A C37G A39G | 0.09 |
| A25G C31A A41C | 0.02 |
| C23G G35U A39C | 0.18 |
| C23A U28G G40C | 0.12 |
| A24U U28C C45A | 0.34 |
| G22U G29A A39C | 0.24 |
| A25U A39G C46U | 0.04 |
| C23A A26U G35A C37U | 0.03 |
| A24C G40U A41G G44A | 0.08 |

| Variant | self-cleavage |
| --- | --- |
| A25U G36A C37U | 0.04 |
| G22U U34C G35U | 0.08 |
| C23A A25U A41U G44A | 0.05 |
| A25U A41C C45G | 0.1 |
| C23A U28G U34G U43A | 0.04 |
| A24U G27A C46A | 0.26 |
| A24C A25C C46A | 0.52 |
| A24U U32G G33C C42U | 0.01 |
| A24C A26C G44A | 0.07 |
| A25G A26G C31A | 0.01 |
| C23G A26U G35C | 0 |
| C23G A25G A39C | 0.04 |
| G22U G29A G30C G35A C37G | 0.05 |
| C23A G30U G36C C37A | 0.08 |
| G22U A26U A41G | 0.53 |
| C23U G29U G44U | 0.2 |
| C23A C31U G35A C46U | 0.02 |
| G22U G27C G29A U32A G33U C45G | 0.02 |
| A25G C31U C37A | 0.12 |
| A25C A41U G44C | 0.14 |
| G22U U38G C42U | 0.01 |
| G22U U38G C42G | 0 |
| A24U U38G G40U U43C G44U | 0.08 |
| C23A C42G C45A | 0.04 |

| Variant | self-cleavage |
| --- | --- |
| C23A G27C G35C G36C | 0.12 |
| G22U G29A G44U | 0.2 |
| C23A U38C C45U | 0.37 |
| C23U A24U G30U U34G | 0.04 |
| A24U G35C A41G C45G | 0.03 |
| C23G A24G U32G G44U | 0.04 |
| C23A A26C C46G | 0.95 |
| A25C C31G U34C G44U | 0.01 |
| A24G C31G U34G C37A G40C | 0.01 |
| C23G U32G G36U | 0.03 |
| C23A G27U G29U G36U | 0.05 |
| C23U A24C C31A U32A | 0.04 |
| G22U A26C G27C C31A C42G | 0.05 |
| A24C C31U C46U | 0.18 |
| A24G G27U C46A | 0.24 |
| C23G U34G C37A | 0.06 |
| A24U U28G C45U | 2.5 |
| A24U U34A A41U | 0.04 |
| G22U U34G A41C | 0.01 |
| G22U A41C C46U | 0.08 |
| A24C G35U C45A | 0 |
| A25U G29C G33C G44A C46A | 0.02 |
| A24U C31G G33C G44U | 0.03 |
